The other results are listed elsewhere or left out.

These results are taken from the antibiotic and cytotoxicity screens of Wong et al. (2023).

The first test relates to HSkMC (human skeletal muscle cells). Briefly: cytotoxicity call (relative viability < 0.9). To be noted: 10 µM.
With `Cc1ccc(S(=O)(=O)Nc2ccc3c(c2)CC(=O)N([C@@H](C)CO)C[C@H](C)[C@H](CN(C)S(=O)(=O)c2cccs2)O3)cc1`, the cytotoxicity call is “inactive”.
Still for that read-out and setting: with `O/N=C/c1ccc2ccccc2c1` the entry was “inactive”; with `[O-][n+]1onc2c1CCc1c-2nn(-c2ccccc2)[n+]1[O-]`, “inactive”; with `C[C@@H]1CCCCO[C@H](CN(C)S(=O)(=O)c2ccccc2)[C@@H](C)CN([C@H](C)CO)C(=O)c2cc(NS(=O)(=O)c3cn(C)cn3)ccc2O1`, “inactive”.
On the same count and under the same terms, the same measure for `COc1ccc(S(=O)(=O)N(C)C[C@@H]2Oc3ccc(NS(=O)(=O)c4cccs4)cc3C(=O)N([C@@H](C)CO)C[C@H]2C)cc1`: “inactive”; for `CCC(=O)OC1(C(=O)SCF)C(C)CC2C3CC(F)C4=CC(=O)C=CC4(C)C3(F)C(O)CC21C` (stereo not given): “inactive”; for `C[C@@H]1CCCCO[C@@H](CN(C)C(=O)c2ccccc2)[C@@H](C)CN([C@@H](C)CO)C(=O)c2cc(NC(=O)Nc3ccc(C(F)(F)F)cc3)ccc2O1`: “inactive”.
Still for that read-out and setting: the same measure for `C[C@H](CO)N1C[C@H](C)[C@H](CN(C)S(=O)(=O)c2ccc(F)cc2)Oc2ccc(NC(=O)CCN3CCOCC3)cc2CC1=O`: “inactive”; for `COc1ccc(S(=O)(=O)N(C)C[C@H]2Oc3c(NS(=O)(=O)c4c(C)noc4C)cccc3C(=O)N([C@@H](C)CO)C[C@H]2C)cc1`: “inactive”; for `O=C(C[C@H]1CC[C@H](NS(=O)(=O)c2ccccc2F)[C@@H](CO)O1)NCCCN1CCOCC1`: “inactive”.
For the compound `COc1cc(OC)c2c(c1)OC(c1ccccc1)CC2=O` (stereo not given), the cytotoxicity call is “inactive”.

The next test relates to HepG2. Briefly: cytotoxicity call (relative viability < 0.9). As to conditions: 10 µM.
Consider `COCC#Cc1cnc2c(c1)C(=O)N([C@@H](C)CO)C[C@H](C)[C@@H](CN(C)S(=O)(=O)c1ccccc1)O2`, for which the cytotoxicity call was “inactive”.
The same measure, in the same setting: the same measure for `COc1ccc(S(=O)(=O)Nc2ccc3c(c2)C(=O)N([C@@H](C)CO)C[C@H](C)[C@@H](CN(C)C(=O)c2ccccc2)OCCCC[C@@H](C)O3)cc1`: “inactive”; for `COc1ccc(CNC(=O)N(C)C[C@H]2OCc3ccccc3-c3c(n(C)c4ccccc34)C(=O)N([C@@H](C)CO)C[C@@H]2C)cc1`: “inactive”.
The same measure, in the same setting: the same measure for `C[C@H](CO)N1C[C@H](C)[C@@H](CN(C)C(=O)c2cnccn2)Oc2cc(C3=CCCC3)ccc2S1(=O)=O`: “inactive”; for `C[C@@H]1CN([C@@H](C)CO)C(=O)c2cc(NC(=O)CCC(F)(F)F)ccc2O[C@@H](C)CCCCO[C@@H]1CN(C)S(=O)(=O)c1ccc(F)cc1`: “inactive”; for `C[C@H](CO)N1C[C@H](C)[C@@H](CN(C)Cc2ccc(Cl)c(Cl)c2)Oc2ccc(NC(=O)Nc3ccc4c(c3)OCO4)cc2C1=O`: “inactive”.
On the same count and under the same terms, with `CC1(C)C(=O)NCCN1C(=O)c1ccco1` the entry was “inactive”.
As to `COCC(=O)N(C)C[C@H]1Oc2cc(C#CCC3CCCC3)ccc2S(=O)(=O)N([C@H](C)CO)C[C@@H]1C`, the cytotoxicity call was “inactive”.
The same measure, in the same setting: with `C[C@@H]1CN([C@@H](C)CO)S(=O)(=O)c2ccc(-c3ccncc3)cc2O[C@H]1CN(C)S(=O)(=O)c1ccccc1F` the entry was “inactive”; with `O=C(C[C@H]1C[C@H]2c3cc(NS(=O)(=O)c4ccc(F)cc4)ccc3O[C@H]2[C@H](CO)O1)NCc1ccccc1F`, “inactive”; with `C[C@@H]1CCCCO[C@@H](CN(C)S(=O)(=O)c2cn(C)cn2)[C@H](C)CN([C@H](C)CO)C(=O)c2cc(NC(=O)Nc3ccc(C(F)(F)F)cc3)ccc2O1`, “inactive”.
In the case of `O=C(NCc1ccc(F)cc1)[C@H]1[C@H](CO)[C@H]2Cn3c(cccc3=O)[C@@H]1N2C(=O)c1cnccn1`, the cytotoxicity call was “inactive”.
The same measure, in the same setting: the same measure for `Nc1nc(=O)c2c([nH]1)CN(C(=O)[C@H]1CCOC1)CC2`: “inactive”; for `COc1ccc(CN(C)C[C@@H]2OCCCC[C@H](C)Oc3ccc(NC(=O)Nc4ccc(OC)cc4)cc3C(=O)N([C@@H](C)CO)C[C@H]2C)cc1`: “active”; for `C[C@@H]1CN([C@H](C)CO)C(=O)c2cccc(NC(=O)c3ccc(-c4nccs4)cc3)c2O[C@H]1CN(C)C(=O)Nc1ccc(C(F)(F)F)cc1`: “inactive”.
Take `COc1ccccc1S(=O)(=O)N(C)C[C@@H]1Oc2cc(C#CCC(C)C)ccc2S(=O)(=O)N([C@H](C)CO)C[C@H]1C`: the cytotoxicity call was “inactive”.
The same measure, in the same setting: with `COc1ccc(S(=O)(=O)Nc2ccc3c(c2)C(=O)N([C@H](C)CO)C[C@@H](C)[C@H](CN(C)Cc2ccc(C(=O)O)cc2)OCCCC[C@@H](C)O3)cc1` the entry was “inactive”; with `C[C@H]1C[C@@H]2[C@@H](C[C@@H]1C)N[C@@H]1C(=O)NC(=O)N[C@H]1N2C[C@H](O)[C@H](O)[C@H](O)CO`, “inactive”.
Same read-out and setting: with `Cc1noc(C)c1NC(=O)N(C)C[C@@H]1Oc2cc(C#CCN(C)C)ccc2S(=O)(=O)N([C@H](C)CO)C[C@H]1C` the entry was “inactive”.
